Drawing on PubChem BioAssay AID488969 (Vanderbilt High Throughput Screening Facility, 2010), this text covers z-score for 70 molecules.

Each structure is given as a SMILES string. The full ranking holds about 110,000 compounds; the median of “z-score” is about -0.1, and the highest 2% start at about 2. The list shows a part of the results.

The target in the experiment is Metabotropic glutamate receptor 8 (Rattus norvegicus) (UniProt P70579). In words: rat mGluR8 modulators via GIRK flux, primary screen, cell-based, thallium flux, HTS (AID 488969). The following applies: HEK293 rat mGluR8, GIRK (G protein-gated inwardly rectifying potassium channel) thallium flux, FluoZin2; at 10 µM; stronger effect = higher value; submaximal glutamate (EC20) added with thallium.
Sequence of UniProt P70579 (P70579 whole entry, looked up): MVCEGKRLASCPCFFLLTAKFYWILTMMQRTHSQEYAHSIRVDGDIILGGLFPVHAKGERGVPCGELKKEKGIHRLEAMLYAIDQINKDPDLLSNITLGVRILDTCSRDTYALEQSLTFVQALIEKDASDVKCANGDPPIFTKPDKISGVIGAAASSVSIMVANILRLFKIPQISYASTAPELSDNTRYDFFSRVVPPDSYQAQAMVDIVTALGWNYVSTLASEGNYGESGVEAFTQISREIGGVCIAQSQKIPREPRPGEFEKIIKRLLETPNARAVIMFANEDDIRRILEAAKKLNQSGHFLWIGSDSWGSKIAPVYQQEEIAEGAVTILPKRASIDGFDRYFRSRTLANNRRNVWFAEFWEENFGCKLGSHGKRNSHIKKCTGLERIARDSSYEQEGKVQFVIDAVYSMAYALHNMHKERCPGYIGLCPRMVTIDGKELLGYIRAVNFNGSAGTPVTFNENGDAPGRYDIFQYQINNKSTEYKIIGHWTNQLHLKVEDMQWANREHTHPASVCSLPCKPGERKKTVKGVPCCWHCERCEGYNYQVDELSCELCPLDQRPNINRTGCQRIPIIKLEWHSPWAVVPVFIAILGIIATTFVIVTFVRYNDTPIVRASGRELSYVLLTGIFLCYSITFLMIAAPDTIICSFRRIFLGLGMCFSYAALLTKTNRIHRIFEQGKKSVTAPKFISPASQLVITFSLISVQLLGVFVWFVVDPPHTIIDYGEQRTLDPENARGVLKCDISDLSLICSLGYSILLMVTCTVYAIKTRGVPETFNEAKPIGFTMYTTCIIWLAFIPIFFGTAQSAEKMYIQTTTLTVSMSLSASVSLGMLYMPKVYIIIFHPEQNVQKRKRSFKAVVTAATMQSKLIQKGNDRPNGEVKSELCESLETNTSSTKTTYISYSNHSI
`CCOc1ccccc1NC(=O)Cn1c(=O)c2ccccc2n(CC)c1=O`: the z-score is -0.35.
The value for `CCOC(=O)CNC(=O)CSc1nnc(-c2ccco2)n1Cc1ccco1` was 0.612; that for `COC(=O)c1c(NC(=O)CSc2nc3ccccc3c(=O)n2Cc2ccco2)sc(C)c1C` was 0.969.
To `CCN(CCO)Cc1cc(=O)oc2c(C)c(C)ccc12` belongs 0.543; to `O=C(c1ccccc1)N1CCC(O)(c2cccnc2)CC1`, -0.0866.
To `CCCc1nc2c(c(=O)c3ccccc3n2C)c(=O)n1C1CCCCCC1` belongs -0.719; to `COc1cc(C)c(/C=C(\C#N)C(=O)Nc2cccc(C)c2)cc1C(C)C`, -0.021; to `CSCCC(NC(=O)c1ccc(Cl)cc1)C(=O)NC(C)(C)C` (stereo not given), -0.119.
For `O=C(NCC(=O)N(CCN1CCOCC1)C(C(=O)NC1CCCC1)c1cccs1)c1ccco1` (stereo not given), the z-score was -0.231.
The value for `O=C(CCCNC(=O)/C(=C/c1ccc(Br)cc1)NC(=O)c1ccccc1)OCc1ccccc1` was -2.26; that for `COc1ccc(CCN2C(=O)CCC2(C)C(=O)NCc2cccnc2)cc1OC` (stereo not given) was -0.282; that for `CSc1ccc(/C=N/NC(=O)c2cc(O)cc(O)c2)cc1` was -0.318.
The value for `CCOC(=O)c1sc(NC(=O)c2ccco2)nc1-c1ccccc1` was 0.0322; that for `CCc1ccc(NC(=S)N2CCN(c3cccc(C(F)(F)F)c3)CC2)cc1` was -0.054; that for `COCCN(C(=O)c1ccco1)c1nnc(-c2ccc(OC)c(OC)c2)s1` was 0.0431.
To `CCOC(=O)N1CCN(C(=O)C2CCN(Cc3cccc(OCc4ccccc4)c3)CC2)CC1` belongs 0.0228; to `Cc1nc2c(-c3ccccc3)c(C)nn2c(N)c1-c1ccccc1`, -0.203; to `CCc1ccc(NC(=O)C2(c3ccccc3)CC2(Cl)Cl)cc1` (stereo not given), -0.0619.
In turn, `CC(=O)Nc1ccc(S(=O)(=O)N2CCC(NC(=O)C(Cc3cccn3C)NC(C)=O)CC2)cc1` (stereo not given) displayed a z-score of 0.29.
As to `CC(NC(=S)Nc1ccccc1Cl)C(c1cccs1)N1CCCC1` (stereo not given), the z-score was 0.0771.
To `CC1=NOC(=O)/C1=C\c1ccc(-c2cccc(Cl)c2)o1` belongs -0.949.
To `O=C(Nc1cc(S(=O)(=O)Nc2ccc(Cl)cc2)ccc1N1CCCCC1)c1ccc(F)cc1` belongs -0.239; to `Cc1cccc(OCC(=O)Nc2ccc3c(c2)OCCO3)c1`, -0.167; to `Cc1cc(NC(=O)Nc2ccc(F)cc2)no1`, -0.8.
The value for `COc1ccc(C2Nc3ccccc3C(=O)N2Cc2ccccc2)cc1CSc1ccccn1` (stereo not given) was -0.275; that for `Cc1ccc(S(=O)(=O)Nc2ccc(Br)cc2/C=N/n2cnnc2)cc1` was -0.433.
For the molecule `Cc1cc(NC(=O)CCc2ccc(S(=O)(=O)N3CCOCC3)cc2)n(-c2ccccc2)n1`, the z-score is 0.97.
The value for `CCOC(=O)c1cc(-c2ccc(OC)cc2F)nc2c1c(C)nn2CCC#N` was -0.177; that for `C=CCOc1ccc(C2/C(=C(\O)c3c(C)[nH]c(C(=O)OC)c3C)C(=O)C(=O)N2CCN(C)C)cc1` (stereo not given) was 0.0791; that for `Cc1ccnn2cc3c(=O)n(C)c(=O)n(C)c3c12` was -0.231.
The value for `O=C(NNc1cc(N2CCOCC2)nc(N2CCOCC2)n1)C12CC3CC(CC(C3)C1)C2` was 0.223; that for `CCCCCn1c(CN2CCCCC2C)nc2c1c(=O)n(C)c(=O)n2C` (stereo not given) was -0.252; that for `COc1ccc(C(=O)NNC(=O)c2ccccc2[N+](=O)[O-])cc1` was -0.0219.
The molecule `O=C(CN1C(=O)NC2(CCSC2)C1=O)N1CCN(c2ccc(F)cc2)CC1` (stereo not given) yielded a z-score of 0.503.
Take `CC1=CC(C)(C)Nc2cc(C)c(C)cc21`: the z-score was -0.0982.
The value for `C/C=C/c1c(F)c(F)c(Oc2ccc(C(=O)O)cc2)c(F)c1F` was -0.0372; that for `Cc1cc2ccccc2n1CCNC(=O)COc1ccc2ccccc2c1` was 0.11; that for `COc1ccc(OC)c(Nc2ncnc3c2cnn3-c2cccc(C)c2)c1` was 0.488.
As to `CNC(=S)N/N=C(\C)c1ccc(-n2ccnc2)cc1`, the z-score was -0.579.
As to `Cc1ccc(/C=N/n2c(C)nnc2C)cc1`, the z-score was -0.418.
The value for `Cc1ccc(SCC(=O)Nc2ccc(N3CCN(C)CC3)c(F)c2)cc1` was 0.01; that for `Cn1nnc2cc(C(=O)N3CCN(c4ccccc4)CC3)ccc21` was 0.231; that for `CC(C)=CCC/C(C)=C/CCC(C)NCCN1CCNCC1` (stereo not given) was 1.32.
The value for `CCC(=NCCc1c(C)[nH]c2ccc(C)cc12)C1=C(O)CC(c2ccccc2)CC1=O` (stereo not given) was 0.969; that for `CCNc1nc(Cl)nc(NNC(=O)C(C)Oc2ccccc2)n1` (stereo not given) was -0.658.
For the molecule `Cc1ccc(NCCC#N)cc1C`, the z-score was -0.0143.
`O=[N+]([O-])c1ccc(N(c2ccccc2)c2ccccc2)cc1`: the z-score is -1.59.
As for `COC(=O)c1cc(NC(=O)C23CCC(C)(C(=O)O2)C3(C)C)cc(C(=O)OC)c1` (stereo not given), the z-score is 0.577.
Take `COc1cccc(C(=O)Nc2cccnc2)c1`: the z-score was -0.141.
Consider `N#CC1=C(N)Oc2n[nH]c(-c3cccs3)c2C1C1C=CCCC1` (stereo not given), for which the z-score is -0.18.
Regarding `Cc1cc(N(CCO)CCO)ccc1C(c1ccc(N(CCO)CCO)cc1C)c1ccccc1Cl`, the z-score is -0.374.
To `O=C(CN1CCN(Cc2cccc(Cl)c2)C1=O)NCc1ccccn1` belongs 0.34; to `Cc1cc(C(=O)Nc2c(C)n(C)n(-c3ccccc3)c2=O)on1`, -0.0853.
To `CCC1S/C(=C(\C#N)C(=O)NCc2ccco2)N(c2ccc(F)cc2)C1=O` (stereo not given) belongs -1.25; to `FC(F)(F)c1cnc(Oc2ccc(-c3nnco3)cc2)c(Cl)c1`, -0.503; to `CSc1nc(NCC(C)C)c2c3c(sc2n1)CN(C)CC3`, 0.139.
With `CN1CC(=O)Nc2ccc(F)cc2C1=O`, the z-score is 0.186.
To `COC(=O)c1ccc(C(=O)OC)c(NC(=O)C2CC2)c1` belongs -0.199; to `Cc1ccc(NC(=O)CSc2nccn2C)cc1S(=O)(=O)N1CCOCC1`, 1.53.
Take `Clc1ccccc1CO/N=C1\CCCc2nonc21`: the z-score was -0.417.
For the molecule `CCC1CC(CSc2ncn[nH]2)OC1=O` (stereo not given), the z-score is -0.145.
Regarding `O=c1nc2ccccc2c2n1CC(CN1CCN(c3ccc(F)cc3)CC1)N2` (stereo not given), the z-score was -0.473.
As to `O=C(N/N=C/C(Br)=C\c1ccccc1)c1ccc2nc[nH]c2c1`, the z-score was 0.472.
To `Cc1cc(C)nc(N2N=C(C(C)(C)C)CC2=O)n1` belongs -0.168; to `N#Cc1ccc(N2CCCC2C(=O)O)c([N+](=O)[O-])c1` (stereo not given), -0.206; to `CCN(CCCNC(=O)C1CCN(S(=O)(=O)N2CCOCC2)CC1)c1cccc(C)c1`, 0.808.
To `O=C(CSC1=NCCS1)Nc1nc2ccccc2s1` belongs -0.264.
To `CN1CCN(CCCNC(=O)C2CC(=O)N(C3CCCCC3)C2)CC1` (stereo not given) belongs -0.351; to `CCOC(=O)C1CCCN(C2CC(=O)N(c3ccc(C)c(C)c3)C2=O)C1` (stereo not given), -1.32; to `CCC(=O)Nc1cccc(NC(=O)CSc2nnc(-c3ccc(NS(C)(=O)=O)cc3)n2C)c1`, -0.39.
